Measured values from PMC12820563.
The list shows a part of the results. The list includes weakly bound sequences.

These sequences were tested against T1, MBP-FoxP3dN (UniProt Q99JB6) (assay: PD-seq (MBP pull-down with sequencing)). Conditions: 20 mM Tris-HCl pH 7.5, 100 mM NaCl, 1.5 mM MgCl2, 0.4 uM protein, 0.1 uM dsDNA library, 30 min, room temperature, amylose pull-down; high values mean tight binding; double strand, one strand shown.
T1 sequence: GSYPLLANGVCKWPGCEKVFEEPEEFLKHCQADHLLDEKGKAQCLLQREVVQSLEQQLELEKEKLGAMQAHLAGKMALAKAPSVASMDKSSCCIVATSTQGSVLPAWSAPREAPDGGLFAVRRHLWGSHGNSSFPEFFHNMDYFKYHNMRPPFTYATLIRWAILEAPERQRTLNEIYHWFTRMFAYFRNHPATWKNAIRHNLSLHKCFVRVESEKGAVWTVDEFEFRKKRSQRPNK

Sequence	binding signal (RPM ratio (pull-down/input))
GATGATTGTTCTCCCAGCTGATGAATTCTCAAGTTCGAGTAAACAAATTTTCCTAATCTTTCTGTTCAAGCGCCATCTAC	0.226
GATGATTGTTCTCCCAGCTGATGAATTACCCTACTCGAGTAAACAAATTTTCCTAATCTTTCTGTTCAAGCGCCATCTAC	0.313
GATGATTGTTCTCCCAGCTGATGAATTTTTGGGGTCGAGTAAACAAATTTTCCTAATCTTTCTGTTCAAGCGCCATCTAC	0.233
GATGATTGTTCTCCCAGCTGATGAATTTCGGCGGTCGAGTAAACAAATTTTCCTAATCTTTCTGTTCAAGCGCCATCTAC	0.285
GATGATTGTTCTCCCAGCTGATGAATTGGGGAAGTCGAGTAAACAAATTTTCCTAATCTTTCTGTTCAAGCGCCATCTAC	0.194
GATGATTGTTCTCCCAGCTGATGAATTTTGCACATCGAGTAAACAAATTTTCCTAATCTTTCTGTTCAAGCGCCATCTAC	1.71
GATGATTGTTCTCCCAGCTGATGAATTTCTTATATCGAGTAAACAAATTTTCCTAATCTTTCTGTTCAAGCGCCATCTAC	0.379
GATGATTGTTCTCCCAGCTGATGAATTTAATGCGTCGAGTAAACAAATTTTCCTAATCTTTCTGTTCAAGCGCCATCTAC	1.63
GATGATTGTTCTCCCAGCTGATGAATTGCGGCATTCGAGTAAACAAATTTTCCTAATCTTTCTGTTCAAGCGCCATCTAC	7.34
GATGATTGTTCTCCCAGCTGATGAATTCAAATCCTCGAGTAAACAAATTTTCCTAATCTTTCTGTTCAAGCGCCATCTAC	0.253
GATGATTGTTCTCCCAGCTGATGAATTCTACAGATCGAGTAAACAAATTTTCCTAATCTTTCTGTTCAAGCGCCATCTAC	0.224
GATGATTGTTCTCCCAGCTGATGAATTGGCCTAATCGAGTAAACAAATTTTCCTAATCTTTCTGTTCAAGCGCCATCTAC	0.36
GATGATTGTTCTCCCAGCTGATGAATTCCTTCGATCGAGTAAACAAATTTTCCTAATCTTTCTGTTCAAGCGCCATCTAC	0.204
GATGATTGTTCTCCCAGCTGATGAATTTCCTCCATCGAGTAAACAAATTTTCCTAATCTTTCTGTTCAAGCGCCATCTAC	0.199
GATGATTGTTCTCCCAGCTGATGAATTCCATGATTCGAGTAAACAAATTTTCCTAATCTTTCTGTTCAAGCGCCATCTAC	0.625
GATGATTGTTCTCCCAGCTGATGAATTGAATCCCTCGAGTAAACAAATTTTCCTAATCTTTCTGTTCAAGCGCCATCTAC	0.317

Sequence	binding signal (RPM ratio (pull-down/input))
GATGATTGTTCTCCCAGCTGATGAATTTAGGCTGTCGAGTAAACAAATTTTCCTAATCTTTCTGTTCAAGCGCCATCTAC	0.592
GATGATTGTTCTCCCAGCTGATGAATTAACACGCTCGAGTAAACAAATTTTCCTAATCTTTCTGTTCAAGCGCCATCTAC	0.485
GATGATTGTTCTCCCAGCTGATGAATTAAGGAAATCGAGTAAACAAATTTTCCTAATCTTTCTGTTCAAGCGCCATCTAC	0.293
GATGATTGTTCTCCCAGCTGATGAATTGGCTTGCTCGAGTAAACAAATTTTCCTAATCTTTCTGTTCAAGCGCCATCTAC	1.4
GATGATTGTTCTCCCAGCTGATGAATTATGACGATCGAGTAAACAAATTTTCCTAATCTTTCTGTTCAAGCGCCATCTAC	0.361
GATGATTGTTCTCCCAGCTGATGAATTTACGGTATCGAGTAAACAAATTTTCCTAATCTTTCTGTTCAAGCGCCATCTAC	0.88
GATGATTGTTCTCCCAGCTGATGAATTAATGCCTTCGAGTAAACAAATTTTCCTAATCTTTCTGTTCAAGCGCCATCTAC	3.2
GATGATTGTTCTCCCAGCTGATGAATTGTGTAATTCGAGTAAACAAATTTTCCTAATCTTTCTGTTCAAGCGCCATCTAC	3.19
GATGATTGTTCTCCCAGCTGATGAATTAAATTGTTCGAGTAAACAAATTTTCCTAATCTTTCTGTTCAAGCGCCATCTAC	1.81
GATGATTGTTCTCCCAGCTGATGAATTCAGTCGTTCGAGTAAACAAATTTTCCTAATCTTTCTGTTCAAGCGCCATCTAC	0.694
GATGATTGTTCTCCCAGCTGATGAATTTCTATCTTCGAGTAAACAAATTTTCCTAATCTTTCTGTTCAAGCGCCATCTAC	0.333
GATGATTGTTCTCCCAGCTGATGAATTGATTTGATCGAGTAAACAAATTTTCCTAATCTTTCTGTTCAAGCGCCATCTAC	0.64
GATGATTGTTCTCCCAGCTGATGAATTCTTGTAGTCGAGTAAACAAATTTTCCTAATCTTTCTGTTCAAGCGCCATCTAC	0.436
GATGATTGTTCTCCCAGCTGATGAATTCGATGCTTCGAGTAAACAAATTTTCCTAATCTTTCTGTTCAAGCGCCATCTAC	1.89
GATGATTGTTCTCCCAGCTGATGAATTCGCAAGGTCGAGTAAACAAATTTTCCTAATCTTTCTGTTCAAGCGCCATCTAC	0.378
GATGATTGTTCTCCCAGCTGATGAATTTTATGCCTCGAGTAAACAAATTTTCCTAATCTTTCTGTTCAAGCGCCATCTAC	0.845
